# According to the supplement of paper PMC4604168 (melanoma cell lines):
# The other results are listed elsewhere or left out. Most values come without repeats; read them as rough.
# Test system: WM1716
# Assay: cell count relative to DMSO control; melanoma cells; higher = more viable cells
# Settings: library dose: low library concentration; 72 h
# 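Note: cell number obtained by counting DAPI-stained nuclei in high-throughput microscope images with image analysis software, screen run in 1,536-well plates.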
row,Structure (SMILES),cell count [%]
1,"CN(c1ncccc1CNc1nc(Nc2ccc3c(c2)CC(=O)N3)ncc1C(F)(F)F)S(C)(=O)=O + O=C(Nc1cccc(Cl)c1)Nc1ncc(CCNc2ncnc3ccsc23)s1 [SNS314] (first compound 0.08 µM, partner dose 0.0008 µM)",88.5
2,"CN(c1ncccc1CNc1nc(Nc2ccc3c(c2)CC(=O)N3)ncc1C(F)(F)F)S(C)(=O)=O + O=C(CCCCCCC(=O)Nc1ccccc1)NO [vorinostat] (first compound 0.08 µM, partner dose 0.08 µM)",101
3,"NC1(c2ccc(-c3nc4ccn5c(=O)[nH]nc5c4cc3-c3ccccc3)cc2)CCC1 + CS(=O)(=O)CCNCc1ccc(-c2ccc3ncnc(Nc4ccc(OCc5cccc(F)c5)c(Cl)c4)c3c2)o1 [lapatinib] (first compound 0.4 µM, partner dose 0.8 µM)",82.2
4,"C=C(c1ccc(C(=O)O)cc1)c1cc2c(cc1C)C(C)(C)CCC2(C)C [Bexarotene] + c1cc(-c2cnn3cc(-c4ccc(OCCN5CCCCC5)cc4)cnc23)ccn1 [Dorsomorphin] (first compound 2 µM, partner dose 0.4 µM)",90.9
5,"CN(c1ncccc1CNc1nc(Nc2ccc3c(c2)CC(=O)N3)ncc1C(F)(F)F)S(C)(=O)=O + CC(C)C[C@H](NC(=O)[C@H](Cc1ccccc1)NC(=O)c1cnccn1)B(O)O [Bortezomib] (first compound 0.08 µM, partner dose 0.001 µM)",42.9
6,"NC1(c2ccc(-c3nc4ccn5c(=O)[nH]nc5c4cc3-c3ccccc3)cc2)CCC1 + COc1cc(Nc2ncc(F)c(Nc3ccc4c(n3)NC(=O)C(C)(C)O4)n2)cc(OC)c1OC [Tamatinib] (first compound 0.4 µM, partner dose 0.4 µM)",95.9
7,"C=C(c1ccc(C(=O)O)cc1)c1cc2c(cc1C)C(C)(C)CCC2(C)C [Bexarotene] + OCc1c[nH]c2ccccc12 [Indole-3-carbinol] (first compound 2 µM, partner dose 0.8 µM)",76.1
8,"C=C(c1ccc(C(=O)O)cc1)c1cc2c(cc1C)C(C)(C)CCC2(C)C [Bexarotene] + N#Cc1c(O)c2c(-c3ccc(-c4ccccc4O)cc3)csc2[nH]c1=O [A769662] (first compound 2 µM, partner dose 2 µM)",81.7
9,"C=C(c1ccc(C(=O)O)cc1)c1cc2c(cc1C)C(C)(C)CCC2(C)C [Bexarotene] + CCc1ccc(CCOc2ccc(CC3SC(=O)NC3=O)cc2)nc1 [pioglitazone] (first compound 2 µM, partner dose 2 µM)",79
10,"NC1(c2ccc(-c3nc4ccn5c(=O)[nH]nc5c4cc3-c3ccccc3)cc2)CCC1 + NCC(=O)Nc1ccc(-n2nc(C(F)(F)F)cc2-c2ccc3c(ccc4ccccc43)c2)cc1 [OSU03012] (first compound 0.4 µM, partner dose 1 µM)",131
11,"NC1(c2ccc(-c3nc4ccn5c(=O)[nH]nc5c4cc3-c3ccccc3)cc2)CCC1 + c1cc(-c2cnn3cc(-c4ccc(OCCN5CCCCC5)cc4)cnc23)ccn1 [Dorsomorphin] (first compound 0.4 µM, partner dose 0.4 µM)",98.1
12,"NC1(c2ccc(-c3nc4ccn5c(=O)[nH]nc5c4cc3-c3ccccc3)cc2)CCC1 + C[C@]1(c2nc3c(C(N)=O)cccc3[nH]2)CCCN1 [Veliparib] (first compound 0.4 µM, partner dose 1.4 µM)",89
13,"C=C(c1ccc(C(=O)O)cc1)c1cc2c(cc1C)C(C)(C)CCC2(C)C [Bexarotene] + CCCCCCCCCCCC1=C(O)C(=O)C=C(O)C1=O [Embelin] (first compound 2 µM, partner dose 1.2 µM)",95.1
14,"CS(=O)(=O)c1ccc(C(=O)Nc2ccc(Cl)c(-c3ccccn3)c2)c(Cl)c1 [vismodegib] + COc1ccc(Cl)c(Nc2nc3ccccc3nc2NS(=O)(=O)c2cccc(NC(=O)C(C)(C)N)c2)c1 [XL147] (first compound 1 µM, partner dose 0.8 µM)",95.6
15,"NC1(c2ccc(-c3nc4ccn5c(=O)[nH]nc5c4cc3-c3ccccc3)cc2)CCC1 + CC1(C)NC(=O)N(c2ccc([N+](=O)[O-])c(C(F)(F)F)c2)C1=O [nilutamide] (first compound 0.4 µM, partner dose 1 µM)",118
16,"CS(=O)(=O)c1ccc(C(=O)Nc2ccc(Cl)c(-c3ccccn3)c2)c(Cl)c1 [vismodegib] + COc1cc2ncnc(Nc3ccc(Oc4ccccc4)cc3)c2cc1OC [SrcI1] (first compound 1 µM, partner dose 2 µM)",119
17,"CS(=O)(=O)c1ccc(C(=O)Nc2ccc(Cl)c(-c3ccccn3)c2)c(Cl)c1 [vismodegib] + CN(C)S(=O)(=O)c1ccc2c(c1)/C(=C/c1cc3c([nH]1)CCCC3)C(=O)N2 [SU6656] (first compound 1 µM, partner dose 0.4 µM)",111
18,"CN(c1ncccc1CNc1nc(Nc2ccc3c(c2)CC(=O)N3)ncc1C(F)(F)F)S(C)(=O)=O + O=C1NC(=O)/C(=C/c2ccc(-c3ccc(F)cc3O)o2)S1 [AS252424] (first compound 0.08 µM, partner dose 1 µM)",92.1
19,"CN(c1ncccc1CNc1nc(Nc2ccc3c(c2)CC(=O)N3)ncc1C(F)(F)F)S(C)(=O)=O + Oc1cc(-c2nc(-c3ccccc3)[nH]c2-c2ccncc2)ccc1Cl [L779450] (first compound 0.08 µM, partner dose 0.2 µM)",94
20,"C=C(c1ccc(C(=O)O)cc1)c1cc2c(cc1C)C(C)(C)CCC2(C)C [Bexarotene] + Cn1c(Nc2ccc(C(F)(F)F)cc2)nc2cc(Oc3ccnc(-c4ncc(C(F)(F)F)[nH]4)c3)ccc21 [CHIR265] (first compound 2 µM, partner dose 0.08 µM)",78.3
21,"CCCS(=O)(=O)Nc1ccc(F)c(C(=O)c2c[nH]c3ncc(Cl)cc23)c1F + COc1ccc(Cl)c(Nc2nc3ccccc3nc2NS(=O)(=O)c2cccc(NC(=O)C(C)(C)N)c2)c1 [XL147] (first compound 0.08 µM, partner dose 0.8 µM)",109
22,"CCCS(=O)(=O)Nc1ccc(F)c(C(=O)c2c[nH]c3ncc(Cl)cc23)c1F + CN(C)S(=O)(=O)c1ccc2c(c1)/C(=C/c1cc3c([nH]1)CCCC3)C(=O)N2 [SU6656] (first compound 0.08 µM, partner dose 0.4 µM)",104
23,"C=C(c1ccc(C(=O)O)cc1)c1cc2c(cc1C)C(C)(C)CCC2(C)C [Bexarotene] + COc1cc(Nc2ncc(F)c(Nc3ccc4c(n3)NC(=O)C(C)(C)O4)n2)cc(OC)c1OC [Tamatinib] (first compound 2 µM, partner dose 0.4 µM)",92.6
24,"CS(=O)(=O)c1ccc(C(=O)Nc2ccc(Cl)c(-c3ccccn3)c2)c(Cl)c1 [vismodegib] + CC(=O)O[C@@]12CO[C@@H]1C[C@H](O)[C@@]1(C)C(=O)[C@H](O)C3=C(C)[C@@H](OC(=O)[C@H](O)[C@@H](NC(=O)OC(C)(C)C)c4ccccc4)C[C@@](O)([C@@H](OC(=O)c4ccccc4)[C@H]21)C3(C)C [Docetaxel] (first compound 1 µM, partner dose 0.0001 µM)",55.4
